# In paper PMC9911399:
# The other results are listed elsewhere or left out.
# Target: T1, RBFOX1 RRM (Homo sapiens) (UniProt Q9NWB1)
# T1 sequence: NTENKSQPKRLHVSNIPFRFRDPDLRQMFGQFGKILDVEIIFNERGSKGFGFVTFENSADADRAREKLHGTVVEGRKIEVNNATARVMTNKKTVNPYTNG
# Experiment: EMSA
# Conditions: HiTS-Eq, 1 nM pool, 10 min; buffer printed only for the single-RNA assays: 10 mM Tris pH 7.5, 150 mM NaCl, 3.4 mM EDTA, 0.001% NP-40, 30 C
row,Sequence,binding signal (KA relative to UGCAUGU)
1,GGGAGACCGGAAUUCAGAUUGUCCCUCCCGAUUAAAUCCCGUCGUAGCCACCA / CAATCTGAATTCCGGTCTCCC / TGGTGGCTACGACGGGATT,0.00227
2,GGGAGACCGGAAUUCAGAUUGUCCUCUCCCAUUAAAUCCCGUCGUAGCCACCA / CAATCTGAATTCCGGTCTCCC / TGGTGGCTACGACGGGATT,0.00556
3,GGGAGACCGGAAUUCAGAUUGUCCCCCCCGGUUAAAUCCCGUCGUAGCCACCA / CAATCTGAATTCCGGTCTCCC / TGGTGGCTACGACGGGATT,0.00326
4,GGGAGACCGGAAUUCAGAUUGUCCCCCAAAAUUAAAUCCCGUCGUAGCCACCA / CAATCTGAATTCCGGTCTCCC / TGGTGGCTACGACGGGATT,0.0055
5,GGGAGACCGGAAUUCAGAUUGUCCCCCUCCAUUAAAUCCCGUCGUAGCCACCA / CAATCTGAATTCCGGTCTCCC / TGGTGGCTACGACGGGATT,0.00488
6,GGGAGACCGGAAUUCAGAUUGUCCGGCUUCCUUAAAUCCCGUCGUAGCCACCA / CAATCTGAATTCCGGTCTCCC / TGGTGGCTACGACGGGATT,0.00915
7,GGGAGACCGGAAUUCAGAUUGUCCCCCAUACUUAAAUCCCGUCGUAGCCACCA / CAATCTGAATTCCGGTCTCCC / TGGTGGCTACGACGGGATT,0.00259
8,GGGAGACCGGAAUUCAGAUUGUCCCUCUCCCUUAAAUCCCGUCGUAGCCACCA / CAATCTGAATTCCGGTCTCCC / TGGTGGCTACGACGGGATT,0.0066
9,GGGAGACCGGAAUUCAGAUUGUCCGGUCGCCUUAAAUCCCGUCGUAGCCACCA / CAATCTGAATTCCGGTCTCCC / TGGTGGCTACGACGGGATT,0.00378
10,GGGAGACCGGAAUUCAGAUUGUCCUCCCCGAUUAAAUCCCGUCGUAGCCACCA / CAATCTGAATTCCGGTCTCCC / TGGTGGCTACGACGGGATT,0.00842
11,GGGAGACCGGAAUUCAGAUUGUCCCCUCCCUUUAAAUCCCGUCGUAGCCACCA / CAATCTGAATTCCGGTCTCCC / TGGTGGCTACGACGGGATT,0.00667
12,GGGAGACCGGAAUUCAGAUUGUCCGGUCCACUUAAAUCCCGUCGUAGCCACCA / CAATCTGAATTCCGGTCTCCC / TGGTGGCTACGACGGGATT,0.00584
13,GGGAGACCGGAAUUCAGAUUGUCCCCCAGACUUAAAUCCCGUCGUAGCCACCA / CAATCTGAATTCCGGTCTCCC / TGGTGGCTACGACGGGATT,0.00439
14,GGGAGACCGGAAUUCAGAUUGUCCGUCUCCUUUAAAUCCCGUCGUAGCCACCA / CAATCTGAATTCCGGTCTCCC / TGGTGGCTACGACGGGATT,0.00833
15,GGGAGACCGGAAUUCAGAUUGUCCCCCCCGAUUAAAUCCCGUCGUAGCCACCA / CAATCTGAATTCCGGTCTCCC / TGGTGGCTACGACGGGATT,0.00922
16,GGGAGACCGGAAUUCAGAUUGUCCCCCGAUCUUAAAUCCCGUCGUAGCCACCA / CAATCTGAATTCCGGTCTCCC / TGGTGGCTACGACGGGATT,0.0119
17,GGGAGACCGGAAUUCAGAUUGUCCGGGUCCCUUAAAUCCCGUCGUAGCCACCA / CAATCTGAATTCCGGTCTCCC / TGGTGGCTACGACGGGATT,0.0227
18,GGGAGACCGGAAUUCAGAUUGUCCGGUCCGCUUAAAUCCCGUCGUAGCCACCA / CAATCTGAATTCCGGTCTCCC / TGGTGGCTACGACGGGATT,0.0153
19,GGGAGACCGGAAUUCAGAUUGUCCCCACACCUUAAAUCCCGUCGUAGCCACCA / CAATCTGAATTCCGGTCTCCC / TGGTGGCTACGACGGGATT,0.000441
20,GGGAGACCGGAAUUCAGAUUGUCCCCUCCGGUUAAAUCCCGUCGUAGCCACCA / CAATCTGAATTCCGGTCTCCC / TGGTGGCTACGACGGGATT,0.000591
21,GGGAGACCGGAAUUCAGAUUGUCCCCCCCCCUUAAAUCCCGUCGUAGCCACCA / CAATCTGAATTCCGGTCTCCC / TGGTGGCTACGACGGGATT,0.0143
22,GGGAGACCGGAAUUCAGAUUGUCCCCCACGAUUAAAUCCCGUCGUAGCCACCA / CAATCTGAATTCCGGTCTCCC / TGGTGGCTACGACGGGATT,0.00247
23,GGGAGACCGGAAUUCAGAUUGUCCGGUCUAGUUAAAUCCCGUCGUAGCCACCA / CAATCTGAATTCCGGTCTCCC / TGGTGGCTACGACGGGATT,0.00915
24,GGGAGACCGGAAUUCAGAUUGUCCCCCUACCUUAAAUCCCGUCGUAGCCACCA / CAATCTGAATTCCGGTCTCCC / TGGTGGCTACGACGGGATT,0.00333
